Assay results as given in patent US9120762B2, “Salts of bicyclo-substituted pyrazolon azo derivatives, preparation method and use thereof” (Jiangsu Hengrui Medicine Co., Ltd., priority 2009, dated 2015).
At least one read-out could not be matched to a standard name with certainty.

Experiment: Pharmacokinetics assay in rats
Type: in vivo
Conditions: SD rats, intragastric, 50 mg/Kg (as free acid)
Method: The compounds of the present disclosure were administrated intragastrically to rats to determine the drug concentration in plasma at different time points by HPLC-UV. The pharmacokinetic behavior of the compounds of the present disclosure was studied and evaluated in rats. […] Healthy adult SD rats, male and female in half, were purchased from SINO-BRITSH SIPPR/BK LAB.ANIMAL LTD., Colo., License number: SCXK (Shanghai) 2003-0002 The test compound was diluted with 1% sodium carboxymethyl cellulose to 5 mg/mL (calculated as the free acid form) of suspension before use. Healthy adult SD rats, male and female in half, were divided into 23 groups. […] The plasma samples were stored at −20° C. until analysis. The rats were fed 2 hours after administration. […] Then the mixture was mixed for 3 minute using a vortexer and centrifuged for 10 minutes at 13,500 rpm. 40 μL of the supernatant was analyzed by HPLC-UV. The compartmental model of pharmacokinetics was fitted for the test compounds and the major pharmacokinetic parameters were calculated in which Cmax and tmax were the actually measured values.

Going from CC1=NN(c2ccc3c(c2)CCC3)C(=O)/C1=N\Nc1cccc(-c2cccc(C(=O)O)c2)c1O [Example 1j, (Z)-2′-hydroxy-3′-[N′-(1-indan-5-yl-3-methyl-5-carbonyl-1,5-dihydro-pyrazol-4-ylidene)-hydrazino]-biphenyl-3-carboxylic acid] to CC1=NN(c2ccc3c(c2)CCC3)C(=O)/C1=N\Nc1cccc(-c2csc(C(=O)O)c2)c1O [Example 19d, (Z)-4-{2-hydroxy-3-[N′-(1-indan-5-yl-3-methyl-5-oxo-1,5-dihydro-pyrazol-4-ylidene)-hydrazino]-phenyl}-thiophene-2-carboxylic acid], the “Apparent Distribution Volume Vz/F” value rises from 0.29 ± 0.18 L/kg to 10.4 ± 8.4 L/kg (36-fold).

Compared with CC1=NN(c2ccc3c(c2)CCC3)C(=O)/C1=N\Nc1cccc(-c2cccc(C(=O)O)c2)c1O [Example 3, (Z)-2′-hydroxy-3′-[N′-(1-indan-5-yl-3-methyl-5-oxo-1,5-dihydro-pyrazol-4-ylidene)-hydrazino]-biphenyl-3-carboxylic acid bis-(piperazine)], CC1=NN(c2ccc3c(c2)CCC3)C(=O)/C1=N\Nc1cccc(-c2csc(C(=O)O)c2)c1O [Example 21, (Z)-4-{2-hydroxy-3-[N′-(1-indan-5-yl-3-methyl-5-oxo-1,5-dihydro-pyrazol-4-ylidene)-hydrazino]-phenyl}-thiophene-2-carboxylic acid bis-(piperazine)] is 1.8-fold higher in “Apparent Distribution Volume Vz/F” value: 0.78 ± 0.15 L/kg for the first, 1.37 ± 0.32 L/kg for the second.

Compared with CC1=NN(c2ccc3c(c2)C(C)(C)CC3)C(=O)/C1=N\Nc1cccc(-c2ccc(C(=O)O)o2)c1O [Example 4h, (Z)-5-(3-{N′-[1-(3,3-dimethyl-indan-5-yl)-3-methyl-5-oxo-1,5-dihydro-pyrazol-4-ylidene]-hydrazino}-2-hydroxy-phenyl)-furan-2-carboxylic acid], CC1=NN(c2ccc3c(c2)CCC3)C(=O)/C1=N\Nc1cccc(-c2ccc(C(=O)O)o2)c1O [Example 16a, (Z)-5-{2-hydroxy-3-[N′-(1-indan-5-yl-3-methyl-5-oxo-1,5-dihydro-pyrazol-4-ylidene)-hydrazino]-phenyl}-furan-2-carboxylic acid] is 7.3-fold lower in “Apparent Distribution Volume Vz/F” value: 83.4 ± 54.8 L/kg for the first, 11.5 ± 7.5 L/kg for the second.

CC1=NN(c2ccc3c(c2)C(C)(C)CC3)C(=O)/C1=N\Nc1cccc(-c2ccc(C(=O)O)o2)c1O [Example 5, (Z)-5-(3-{N′-[1-(3,3-dimethyl-indan-5-yl)-3-methyl-5-oxo-1,5-dihydro-pyrazol-4-ylidene]-hydrazino}-2-hydroxy-phenyl)-furan-2-carboxylic acid bis-(diethylamine)] and CC1=NN(c2ccc3c(c2)CCC3)C(=O)/C1=N\Nc1cccc(-c2ccc(C(=O)O)o2)c1O [Example 18, (Z)-5-{2-hydroxy-3-[N′-(1-indan-5-yl-3-methyl-5-oxo-1,5-dihydro-pyrazol-4-ylidene)-hydrazino]-phenyl}-furan-2-carboxylic acid bis-(piperazine)] are within error of each other in “Apparent Distribution Volume Vz/F” value: 4.23 ± 0.42 L/kg for the first, 3.02 ± 1.01 L/kg for the second.

CC1=NN(c2ccc3c(c2)C(C)(C)CC3)C(=O)/C1=N\Nc1cccc(-c2ccc(C(=O)O)o2)c1O [Example 6, (Z)-5-(3-{N′-[1-(3,3-dimethyl-indan-5-yl)-3-methyl-5-oxo-1,5-dihydro-pyrazol-4-ylidene]-hydrazino}-2-hydroxy-phenyl)-furan-2-carboxylic acid bis-(piperazine)] and CC1=NN(c2ccc3c(c2)CCCC3)C(=O)/C1=N\Nc1cccc(-c2ccc(C(=O)O)o2)c1O [Example 7d, (Z)-5-(2-hydroxy-3-{N′-[3-methyl-5-oxo-1-(5,6,7,8-tetrahydro-naphthalen-2-yl)-1,5-dihydro-pyrazol-4-ylidene]-hydrazino}-phenyl)-furan-2-carboxylic acid] are within error of each other in “Apparent Distribution Volume Vz/F” value: 16.0 ± 22.8 L/kg for the first, 36.1 ± 17.9 L/kg for the second.

With CC1=NN(c2ccc3c(c2)CCCC3)C(=O)/C1=N\Nc1cccc(-c2ccc(C(=O)O)o2)c1O [Example 9, (Z)-5-(2-hydroxy-3-{N′-[3-methyl-5-oxo-1-(5,6,7,8-tetrahydro-naphthalen-2-yl)-1,5-dihydro-pyrazol-4-ylidene]-hydrazino}-phenyl)-furan-2-carboxylic acid bis-(diethylamine)] the “Apparent Distribution Volume Vz/F” value was 5.15 ± 1.46 L/kg.
With CC1=NN(c2ccc3c(c2)CCCC3)C(=O)/C1=N\Nc1cccc(-c2ccc(C(=O)O)o2)c1O [Example 11, (Z)-5-(2-hydroxy-3-{N′-[3-methyl-5-oxo-1-(5,6,7,8-tetrahydro-naphthalen-2-yl)-1,5-dihydro-pyrazol-4-ylidene]-hydrazino}-phenyl)-furan-2-carboxylic acid bis-(piperazine)] the “Apparent Distribution Volume Vz/F” value was 5.80 ± 5.30 L/kg.
For CC1=NN(c2ccc3c(c2)CCCC3)C(=O)/C1=N\Nc1cccc(-c2ccc(C(=O)O)o2)c1O [Example 12, (Z)-5-(2-hydroxy-3-{N′-[3-methyl-5-oxo-1-(5,6,7,8-tetrahydro-naphthalen-2-yl)-1,5-dihydro-pyrazol-4-ylidene]-hydrazino}-phenyl)-furan-2-carboxylic acid bis-(trometamol)], the “Apparent Distribution Volume Vz/F” value was 6.35 ± 1.38 L/kg.
In the case of CC1=NN(c2ccc3c(c2)CCCC3)C(=O)/C1=N\Nc1cccc(-c2ccc(C(=O)O)o2)c1O [Example 13, (Z)-5-(2-hydroxy-3-{N′-[3-methyl-5-oxo-1-(5,6,7,8-tetrahydro-naphthalen-2-yl)-1,5-dihydro-pyrazol-4-ylidene]-hydrazino}-phenyl)-furan-2-carboxylic acid bis-(dibenzylethylenediamine)], the “Apparent Distribution Volume Vz/F” value is reported as 14.9 ± 12.1 L/kg.
In the case of CC1=NN(c2ccc3c(c2)CCCC3)C(=O)/C1=N\Nc1cccc(-c2ccc(C(=O)O)o2)c1O [Example 15, (Z)-5-(2-hydroxy-3-{N′-[3-methyl-5-oxo-1-(5,6,7,8-tetrahydro-naphthalen-2-yl)-1,5-dihydro-pyrazol-4-ylidene]-hydrazino}-phenyl)-furan-2-carboxylic acid bis-(L-arginine)], the “Apparent Distribution Volume Vz/F” value is reported as 3.65 ± 1.79 L/kg.
For CC1=NN(c2ccc3c(c2)CCCC3)C(=O)/C1=N\Nc1cccc(-c2ccc(C(=O)O)o2)c1O [Example 23, (Z)-5-(2-hydroxy-3-{N′-[3-methyl-5-oxo-1-(5,6,7,8-tetrahydro-naphthalen-2-yl)-1,5-dihydro-pyrazol-4-ylidene]-hydrazino}-phenyl)-furan-2-carboxylic acid choline], the “Apparent Distribution Volume Vz/F” value was 5.52 ± 2.18 L/kg.
